From PubChem BioAssay AID2546 (National Center for Advancing Translational Sciences (NCATS), 2010)
Screen size: about 310,000 compounds; about 11,000 (3.5%) were called active. Inconclusive means that the source gave no clear call. Such entries were picked first, then a sample of the others. Calls follow the shape of the dose curve; as a rule, active = well fitted inhibition curve with a large enough effect; inconclusive = small, poorly fitted or top-dose-only effect, or effect the other way; inactive = flat fitted curve, though single readings scatter. No potency is given beside an inconclusive call; the fits are too rough.

assay: VP16 counterscreen qHTS for inhibitors of ROR gamma transcriptional activity; settings: Drosophila S2 Gal4-VP16 UAS-luciferase, luminescence, 20 h; activity, negative = inhibition: at 53.6 µM (top of the series);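 also: Gal4-VP16 expression switched on by copper sulfate through the metallothionein promoter; nearly all actives have a fitted effect of over 50% in size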
% is scaled to controls: 0 for no effect and ±100 for the full control effect; potency is read from the fitted curve at half-maximal effect; tags tell the direction and shape of the fitted curve.

SMILES | Potency | activity, negative = inhibition
c1ccc(-c2ccc(-c3ccccn3)nn2)nc1 | active: 8.91 µM | –
Cc1cc2oc(=O)cc(Cn3nnc(-c4ccc(Cl)cc4)n3)c2cc1C(C)C | – | inactive: 7.3%
C/C(CC(=O)Nc1ccc(N(C)C)cc1)=N\NC(=O)c1cnccn1 | inconclusive [activator, single point] | –
N#CCSc1nc2ccc(N3CCCCC3)cc2c(=O)n1Cc1ccccc1 | inconclusive [inhibitor, single point] | –
CCOc1ccc(NC(=S)NC(=O)/C=C/c2ccco2)cc1 | active: 5.62 µM | –
O=C(Nc1cccc2cccnc12)c1cccc(Cl)c1 | inconclusive [activator, single point] | –
CC(C)C[C@H](NC(=O)N1CC(=O)Nc2ccccc21)C(=O)N[C@@H](Cc1ccccc1)C(=O)O | – | inactive: 0.79%
N#C/C(=N\Nc1ccc(S(=O)(=O)N2CCCCCC2)cc1)C(N)=S | inconclusive [inhibitor, single point] | –
COc1ccc(CCNC(=S)NC(=O)c2ccccc2)cc1C | inconclusive [inhibitor, single point] | –
Cc1ccc2c(Cl)cc(Cl)c(OCC(=O)Nc3cccc(S(=O)(=O)N(C)C)c3)c2n1 | active: 10 µM | –
Fc1ccc(CSc2ccc3nnc(-c4cccnc4)n3n2)cc1 | – | inactive: -11.3%
Cc1cccc(NC(=S)Nc2cccc(C)n2)n1 | active: 6.31 µM | –
CCc1ccc(OCC(=O)Nc2ncn[nH]2)cc1 | inconclusive [activator, full curve] | –
Cc1cc(-c2ccccc2)nc2oc(C(=O)NN)c(N)c12 | – | inactive: 15.2%
O=C(Nc1ncccn1)c1ccc([N+](=O)[O-])o1 | inconclusive [inhibitor, single point] | –
O=C(CCCN1C(=O)/C(=C\c2cccs2)SC1=S)Nc1cc([N+](=O)[O-])ccc1O | active: 20 µM | –
CCOc1cc(/C=C(/C#N)C(=O)Nc2ccc(O)cc2)cc(Br)c1O | inconclusive [inhibitor, single point] | –
O=C(CNC(=O)c1ccccc1F)c1ccccc1 | inconclusive [inhibitor, single point] | –
COC(=O)c1ccc(/C=C/C(=O)c2ccc(OC)c(OC)c2)cc1 | – | inactive: -5.79%
Cc1ccc(N=Nc2c(C)[nH]n(-c3ccccc3)c2=O)cc1Br | inconclusive [activator, single point] | –
CC(Oc1ccc(Cl)cc1)C(=O)NCC1CCCO1 (stereo not given) | – | inactive: -4.5%
CCn1c(C)nc2cc(S(=O)(=O)C(F)(F)F)ccc21 | inconclusive [inhibitor, single point] | –
CCOC(=O)c1[nH]c(C)c(C(=O)OCCN2C(=O)c3ccccc3C2=O)c1C | inconclusive [inhibitor, single point] | –
Cc1nc2cnc(Oc3cccc(Cl)c3)nc2n(CCC#N)c1=O | – | inactive: -3.78%
Cc1cc(C)nc(Sc2nc(Nc3ccccc3)nc(Sc3nc(C)cc(C)n3)n2)n1 | inconclusive [inhibitor, single point] | –

SMILES | Potency | activity, negative = inhibition
O=C(NNC1=Nc2ccccc2SC1)c1ccc(F)cc1 | active: 3.55 µM | –
C=CCN(CC=C)CCOc1cc(C)ccc1[N+](=O)[O-] | – | inactive: -16.7%
O=C(N/N=C/c1ccc[nH]1)c1ccc(Cl)cc1 | active: 10 µM | –
O=[N+]([O-])c1ccc(S(=O)(=O)CC(CN2CCCCC2)N2CCCCC2)cc1 (stereo not given) | – | inactive: 15%
Cc1ccc(S(=O)(=O)N/N=C/c2cccc3nccnc23)cc1 | – | inactive: -27.1%
Cn1cnnc1Sc1cc(N2CCN(S(=O)(=O)c3ccccc3)CC2)ccc1[N+](=O)[O-] | inconclusive [inhibitor, single point] | –
CC1CC(=O)c2cnc(N3CCOCC3)nc2C1 (stereo not given) | inconclusive [activator, single point] | –
CC(=O)OCC1OC(C#Cc2ccccc2)C=CC1OC(C)=O (stereo not given) | inconclusive [inhibitor, single point] | –
O=C(NC(=S)Nc1ccc2c(c1)OCCO2)c1cccc(Br)c1 | inconclusive [inhibitor, single point] | –
O=C(COc1ncnc2ccc(Br)cc12)Nc1ccc(N2CCOCC2)cc1 | – | inactive: -1.67%
CCOC(=O)Cc1c(C)nc2c(-c3ccc(Cl)cc3)c(C)[nH]n2c1=O | active: 6.31 µM | –
CCc1c(C(=O)N/N=C/c2cccs2)nnn1-c1nonc1N | inconclusive [inhibitor, single point] | –
COc1ccc(N(Cc2ccccc2)S(=O)(=O)c2cccc(C(=O)NC3=NCCS3)c2)cc1 | inconclusive [inhibitor, single point] | –
Cn1c(=O)c2c(nc(NCCc3ccccc3)n2Cc2ccccc2)n(C)c1=O | active: 6.31 µM | –
C/C(=C\c1ccccc1F)C(=O)c1c(C)cc(C)[nH]c1=O | – | inactive: -4.07%
Cc1cccc(NC(=O)c2ccccc2O)c1C | active: 1.12 µM | –
CCOc1ccc(NC(=O)CC2C(=O)N(c3ccccc3)C(=O)N2CCc2cccs2)cc1 (stereo not given) | – | inactive: -3.64%
COc1cccc(C(=O)NCC2(c3ccccc3)CCCC2)c1 | inconclusive [inhibitor, partial curve] | –
COc1ccccc1NC(=O)CN1CCN(CC(=O)Nc2ccc(F)cc2F)CC1 | inconclusive [activator, partial curve, poor fit] | –
COc1ccccc1N1CCN(C(=S)Nc2ccc(F)cc2)CC1 | inconclusive [inhibitor, single point] | –
COc1ccc(Cl)cc1NC(=O)NN1CCN(C)CC1 | inconclusive [inhibitor, single point] | –
Cn1c(=N)n(CC(=O)C(C)(C)C)c2ccccc21 | inconclusive [inhibitor, single point] | –
NNC(=S)Nc1ccc(OC(F)(F)F)cc1 | inconclusive [inhibitor, single point] | –
Cc1ccc(C)c(NC(=S)NCCSc2ccc(Cl)cc2)c1 | active: 5.01 µM | –
COC(=O)c1ccccc1NC(=S)N(Cc1ccc2c(c1)OCO2)Cc1cc2cc(OC)ccc2[nH]c1=O | inconclusive [activator, single point] | –
